Among all 320,000 compounds or so, about 200 (0.062%) were called active. This list was built around the results that the source calls inconclusive (neither active nor inactive); the mix of calls is not that of the screen. Calls come from the whole dose curve; as a rule, active = well fitted activation curve with a large enough effect; inconclusive = small, poorly fitted or top-dose-only effect; inactive = no such curve, though single readings can be large or run the other way. No potency is given beside an inconclusive call; the fits are too rough.
assay: qHTS assay for re-activators of p53 using a Luc reporter; settings: H1299 p53-A138V BP100-luciferase reporter, luminescence, 24 h; series mostly up to 92.2 µM; note: nearly all actives have a fitted effect of over 45% in size
Procedure, shortened: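 H1299 (p53-null), stable ts p53-A138V + BP100-Luc; 1000 cells/well, Opti-MEM/10% FBS; cpd 4 pt, 1:5; 24 h, 37 deg C, 5% CO2; detection reagent 10 min RT; luminescence.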
Potency is the fitted concentration of half-maximal effect; tags give direction and shape of the fitted curve.

Row | SMILES | Potency
1 | O=C(CCn1c(=O)oc2ccccc21)N1CCN(C(c2ccccc2)c2ccccc2)CC1 | inactive
2 | Cc1cc(/C=N/O)c(C)n1-c1ccccc1 | inconclusive [activator, single point]
3 | Cc1cc(N/N=C/c2ccc(O)cc2O)nc(-c2ccccc2O)n1 | inconclusive [activator, full curve, poor fit]
4 | O=C1OC(c2ccccc2)=C/C1=C/N1CCCCC1 | inconclusive [activator, partial curve, poor fit]
5 | CCCc1ccc(-c2ccc(F)c(N)c2)nc1 | inactive
6 | CC(C)c1ccc(/C=C2\SC(=O)N(CC(=O)NCCCn3ccnc3)C2=O)cc1 | inconclusive [activator, partial curve, poor fit]
7 | Cc1nc(N)nc(Nc2ccc(Cl)cc2)c1Br | inconclusive [activator, partial curve, poor fit]
8 | Nc1ncccc1OCc1ccc(Br)cc1 | inconclusive [activator, single point]
9 | CC(C)c1ccc(NC(=O)CSc2nc3c(c(=O)[nH]2)CCC3)cc1 | inactive
10 | Cc1ccc(NC(=O)CN(Cc2ccco2)Cc2ccccc2O)cc1C | inconclusive [activator, single point]
11 | CC1CCc2c(nc3sc4c(c3c2N)CCCC4)C1 (stereo not given) | inconclusive [activator, partial curve, poor fit]
12 | CS(=O)(=O)N1CCc2cc(-c3csc(NC(=O)Cc4cccs4)n3)ccc21 | inactive
13 | Cc1c(Cl)cccc1NC(=O)Nc1ccc(C(=O)N2CCCC2)cc1 | inconclusive [activator, partial curve, poor fit]
14 | Cc1ccsc1C(=O)NCCc1ccco1 | inconclusive [activator, full curve, poor fit]
15 | Cc1ccnc(SCC(=O)c2ccc(Br)cc2)c1C#N | inconclusive [activator, full curve]
16 | O=C(Nc1ccccc1Cl)C1CCCN(S(=O)(=O)c2cccc3cccnc23)C1 (stereo not given) | inactive
17 | COc1ccccc1NC(=O)c1cc2cc(Br)ccc2cc1O | inconclusive [activator, full curve]
18 | CC(NC(=O)c1ccccc1NC(=O)c1ccco1)C(=O)O (stereo not given) | inconclusive [activator, partial curve, poor fit]
19 | CNC(=O)CC1C(=O)N(c2ccc(F)cc2)C(=S)N1NC(=O)c1ccc(Cl)cc1 (stereo not given) | inconclusive [activator, single point]
20 | Cc1nc2nc(SCc3ccccc3)nn2c(C)c1C | inconclusive [activator, full curve, poor fit]
21 | Cc1[nH]c2ccccc2c1N=Nc1cccc(C(=O)O)c1 | inconclusive [activator, full curve, poor fit]
22 | CC(C)C(=O)N1CCN(c2ccccc2NC(=S)NC(=O)c2cccs2)CC1 | inactive
23 | CCSc1nnc(NC(=O)c2ccc3ccccc3n2)s1 | inconclusive [activator, full curve, poor fit]

Row | SMILES | Potency
24 | CCOc1ccc(-n2c(SCC(=O)N3CCC(C(=O)O)CC3)nc3ccccc3c2=O)cc1 | inconclusive [activator, single point]
25 | O=C(CSC1=NCCS1)Nc1nc(-c2ccccc2)cs1 | inconclusive [activator, partial curve, poor fit]
26 | O=C(Nc1ccc(C(=O)c2ccc(C(=O)O)c(C(=O)O)c2)cc1)c1ccccc1 | inconclusive [activator, single point]
27 | CC1CCCC(NC(=O)c2ccc3c(c2)OCCO3)C1C (stereo not given) | inconclusive [activator, full curve, poor fit]
28 | Cc1cc(-c2ccccc2)n(-c2cc(N/N=C/c3ccccc3O)ncn2)n1 | inactive
29 | CC(C)C(=O)Nc1nnc(CCc2nnc(NC(=O)C(C)C)s2)s1 | inconclusive [activator, single point]
30 | Cn1c(SCc2ccccc2F)nnc1-c1cnccn1 | inconclusive [activator, partial curve, poor fit]
31 | Cc1noc(C)c1COC(=O)c1cc(C)n(-c2ccccc2)c1C | inconclusive [activator, partial curve, poor fit]
32 | COc1ccc(C)cc1-n1nnnc1SCc1nc2ccccc2s1 | inconclusive [activator, partial curve, poor fit]
33 | COc1ccc(/C=N/NC(=O)c2cccc([N+](=O)[O-])c2)cc1OC(=O)c1ccccc1 | inactive
34 | COc1ccc(NC(=S)NC(NC(=O)C(C)C)C(Cl)(Cl)Cl)c([N+](=O)[O-])c1 (stereo not given) | inactive
35 | Cc1cc(C)nc(SCc2cnc(C)nc2N)n1 | inactive
36 | CCC(NC(C)C)C(O)c1ccc(O)c2[nH]c(=O)ccc12 (stereo not given) | inactive
37 | Cc1ccc(C(=O)c2ccc(O)cc2)cc1C | inconclusive [activator, full curve, poor fit]
38 | COC(=O)C1=C(C)NC(C)=C(C(=O)OC)C1c1cn(-c2ccccc2)nc1-c1ccco1 | inactive
39 | CCCCOc1ccc(-c2cnc3ccccc3n2)cc1 | inconclusive [activator, full curve, poor fit]
40 | O=[N+]([O-])c1ccccc1/C=C/CN1CCCCC1CO (stereo not given) | inconclusive [activator, single point]
41 | CC(C)n1c(/C=C/c2ccccc2)nc2ccccc21 | inconclusive [activator, partial curve, poor fit]
42 | COc1cc(CCNc2ccc3nnc(-c4ccccc4)n3n2)cc(OC)c1OC | inactive
43 | O=C(Cn1ncc(Cl)c(Cl)c1=O)N1CCOCC1 | inactive
44 | COc1ccc(/C=C2\SC(=S)N(CCCC(=O)Nc3ccccn3)C2=O)cc1OC | inactive
45 | O=C(Nc1ccccc1Cl)c1csc(-c2cccnc2)n1 | inconclusive [activator, full curve, poor fit]

Source: PubChem BioAssay AID504706 (National Center for Advancing Translational Sciences (NCATS), 2011)
